The campaign covered roughly 340,000 compounds. About 6,900 (2%) were called active. Rule as the data show it: active = inhibition above about 30%; inactive = below that, where a call was filed. The entries are a selection whose mix differs from that of the whole data set. Entries without a call were filed so in the source.
The compounds below were run against D(2) dopamine receptor (Homo sapiens) (UniProt P14416) (assay: HTS Assay for Allosteric Antagonists of the Human D2 Dopamine Receptor: Primary Screen for Antagonists). Settings: HEK293 TREx D2 cells, calcium flux, dopamine EC80; at 10 µM; stronger effect = higher value.
UniProt P14416, sequence (P14416 whole entry, looked up): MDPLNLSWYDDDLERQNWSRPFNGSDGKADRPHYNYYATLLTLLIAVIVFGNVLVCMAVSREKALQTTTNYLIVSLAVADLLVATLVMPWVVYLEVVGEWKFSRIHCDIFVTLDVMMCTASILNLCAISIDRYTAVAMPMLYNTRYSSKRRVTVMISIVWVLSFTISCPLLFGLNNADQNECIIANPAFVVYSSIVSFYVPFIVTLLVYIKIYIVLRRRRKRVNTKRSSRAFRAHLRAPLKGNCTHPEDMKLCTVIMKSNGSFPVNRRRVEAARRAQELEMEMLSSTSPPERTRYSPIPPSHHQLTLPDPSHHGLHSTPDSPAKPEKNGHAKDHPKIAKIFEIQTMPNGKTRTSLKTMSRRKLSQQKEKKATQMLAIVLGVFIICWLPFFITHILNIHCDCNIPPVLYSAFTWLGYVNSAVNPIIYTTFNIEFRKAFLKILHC
How it was run: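 HEK293 T-REx D2 cells, tet-induced, calcium dye no-wash. Cpd pintool add, 180 s kinetic, then EC80 DA, 180 s kinetic. Ca flux read.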
For CC(C)c1ccc(NC(=O)CSc2ncc3c(n2)-c2ccccc2N(C)S3(=O)=O)cc1, the inhibition was -5.95%. With COc1ccc(OCCn2c(C3CC(=O)N(c4ccc(F)cc4)C3)nc3ccccc32)cc1 (stereo unspecified) the inhibition was -1.95%. COc1ccc(Nc2cc(C(=O)NCCc3ccccc3)c3ccccc3n2)cc1OC showed an inhibition of 11.7%. With CCCN(C(=O)Cn1ncc2c(=O)oc3ccccc3c21)c1cccc(C)c1 the inhibition was 12.7%. For CCCCOC(=O)c1ccc(NS(=O)(=O)c2c(C)nc3scc(C)n3c2=O)cc1, the inhibition was -6.79%. Cc1ccc(CNC(=O)Cn2ncc3c(C)n(Cc4ccc(Cl)cc4)c(C)c3c2=O)cc1 was tested, and the inhibition was 2.1%. Compound COc1ccccc1Nc1cc(C)nc2nc(-c3ccccc3)nn12 has an inhibition of 7.57%. Compound CCC(C)NC(=O)Cn1c(=O)n(Cc2ccc(C(=O)NCCCOC)cc2)c(=O)c2ccccc21 (stereo unspecified) has an inhibition of -15.5%. Cc1ccc(NC(=O)c2ccc(NC(=O)N3CCSc4ncccc43)cc2)cc1Cl gave an inhibition of 5.37%. CCc1ccc(-n2nc3cc(C)c(NC(=O)c4cc(Cl)ccc4OC)cc3n2)cc1 was tested, and the inhibition was 0.927%. Work on O=C(Cn1cc(S(=O)(=O)Cc2ccc(F)cc2)c2ccccc21)NCCc1ccccc1 yielded an inhibition of -4.31%. In the case of COc1ccc(NS(=O)(=O)c2cc3[nH]c(=O)c(=O)[nH]c3cc2C)cc1OC, the inhibition is reported as -2.24%. For Cc1ccc2c(=O)cc(C(=O)Nc3sc4c(c3C(=O)NCc3ccco3)CCC4)oc2c1C, the inhibition was 5.26%. Work on Cn1c(=O)c2nc(SCC(=O)Nc3cc(Cl)ccc3Cl)n(C)c2n(C)c1=O yielded an inhibition of 8.53%. For c1ccc(CNc2nc3ccccc3c3nc(-c4ccccc4)nn23)cc1, the inhibition was -1.97%. For NC(=O)CSc1nc2c(oc3ccccc32)c(=O)n1-c1ccccc1F, the inhibition was 6.87%. COc1cccc(CNC(=O)CSc2ccc(-c3sc(-c4ccccc4)nc3C)nn2)c1 gave an inhibition of 3.25%. With CCOc1ccc(C(=O)NCC(c2ccco2)S(=O)(=O)c2ccc(C)cc2)cc1 (stereo unspecified) the inhibition was -27.4%. COc1ccc(Cl)cc1NC(=O)N1CCC(CN2CCc3ccccc3C2)CC1 gave an inhibition of 13.5%. Compound Cc1ccc(NC(=O)Cn2nnnc2-c2ccccc2N)cc1 has an inhibition of -3.48%. O=c1c2cc3c(cc2nc2sc(Nc4ccc(F)cc4F)nn12)OCO3 gave an inhibition of 11%. Compound O=C(C1CCCN(S(=O)(=O)c2cccs2)C1)N1CCN(c2cccc(Cl)c2)CC1 (stereo unspecified) has an inhibition of 8.38%. With Cc1ccc(C)c(N2CCN(c3ncnc4c3nc3n4CCCCC3)CC2)c1 the inhibition was 3.55%. With O=C1CC(C(=O)Nc2ccc(F)c(Cl)c2)N=C(N2CCCCC2)N1 (stereo unspecified) the inhibition was active: 30.3%. With COc1ccc(S(=O)(=O)NNc2nc(C)cc(C)n2)cc1Br the inhibition was active: 52.4%. Work on CCN1c2ccccc2-n2cccc2C12CCN(C(=O)Nc1ccccc1C(F)(F)F)CC2 yielded an inhibition of -27.4%. For C#CCN(C)Cc1ccccc1, the inhibition was active: 31.9%. For CCOc1ccc(OCC)c(NC(=O)C2CCCN(S(=O)(=O)c3ccc4c(c3)oc(=O)n4C)C2)c1 (stereo unspecified), the inhibition was -8.62%. CCOc1ccc(CNC(=O)Cn2c(=O)c3cccn3c3ccc(F)cc32)cc1 was tested, and the inhibition was 19.6%. COc1cccc(NC(=O)[C@H](Cc2ccccc2)NC(=O)[C@@H]2Cc3ccccc3CN2)c1 was tested, and the inhibition was active: 35.4%. Cc1cccc(-c2nc(SCCCOc3ccccc3Cl)n3[nH]c(=O)cc3n2)c1 showed an inhibition of 15.1%. With CC(=O)Nc1ccc(Nc2ncnc3c2c(-c2ccccc2)cn3-c2ccccc2)cc1 the inhibition was -8.18%. COc1ccc(Cl)cc1NC(=O)NCC1CCN(C(=O)OC(C)(C)C)CC1 was tested, and the inhibition was active: 95.4%. Work on Cc1cc(C)cc(-n2c(SCC(=O)N3CCc4ccccc43)nc3c([nH]c4ccccc43)c2=O)c1 yielded an inhibition of -2.55%. O=C(Nc1ccc(F)c(Cl)c1)N1CCN(C(=O)c2nsc3ccccc23)CC1 gave an inhibition of -10.1%. CCCNC(=O)c1ccc2c(c1)N(Cc1cccc(C)c1)C(=O)c1ccccc1S2 showed an inhibition of -8.73%. In the case of Cc1ccc(S(=O)(=O)c2nnn3c2nc(NCc2ccc(F)cc2)c2sccc23)cc1, the inhibition is reported as -8.09%. Cc1cc(C)n(C(=O)c2ccc(NC(=O)CC(C)C)cc2)n1 was tested, and the inhibition was active: 32.9%. In the case of COc1cc(NC(=O)Cn2c(=O)n(Cc3ccccc3OC)c(=O)c3cccnc32)cc(OC)c1, the inhibition is reported as 11.6%. For Cc1cc2nnc(SCC(=O)N3C(C)CCCC3C)n2c(N)n1 (stereo unspecified), the inhibition was active: 30.4%. Cc1ccc(C(=O)COC(=O)c2cc(-c3ccccc3)nc3ccccc23)cc1C was tested, and the inhibition was -5.5%. With Cc1ccc(C)c(N2CCN(S(=O)(=O)c3ccc4oc(=O)c5ncn(C)c5c4c3)CC2)c1 the inhibition was -21%. O=C(CC1N=C2c3ccccc3N=C(SCC(=O)Nc3cccc(C(F)(F)F)c3)N2C1=O)NCc1cccs1 (stereo unspecified) was tested, and the inhibition was 17.6%. For COc1ccc(CCNC(=O)c2nn(-c3ccc(C)cc3)c(=O)c3c2c2ccccc2n3C)cc1OC, the inhibition was 8.76%. For Cc1ccc(C)c(Cn2c(=O)n(Cc3ccccc3)c(=O)c3c(C)c(C)sc32)c1, the inhibition was 6.34%. With CCc1ccccc1NC(=O)Nc1nnc(N2CCCC2)s1 the inhibition was 24.2%. Work on CCc1ccccc1NC(=O)c1cc(S(=O)(=O)N(CC)c2ccccc2)ccc1F yielded an inhibition of 26.1%. CCN1CCN(CCCN(Cc2ccco2)C(=S)Nc2cc(Cl)ccc2C)CC1 was tested, and the inhibition was active: 42.3%. With CCc1nnc(NC(=O)CN2CCN(c3nc(-c4ccccc4)cs3)CC2)s1 the inhibition was active: 31.5%. For CC1CCC(=O)N(CCSc2ccccc2)CC1 (stereo unspecified), the inhibition was active: 33.3%. Compound COc1ccccc1NC(=O)CCCOc1cc(=O)n(C)c2ccccc12 has an inhibition of 10.8%. For CC1CCN(c2nc3c(S(=O)(=O)c4ccccc4)nnn3c3ccsc23)CC1, the inhibition was -14%. For CCS(=O)(=O)Nc1cccc(-c2cc(-c3ccccc3)c3cc(C)ccc3n2)c1, the inhibition was active: 30.3%. Compound COc1ccc(-c2nc(C)c(CCNC(=O)C(=O)Nc3cccc(F)c3)s2)cc1OC has an inhibition of 1.6%. For Cc1nonc1C(=O)N/N=C/c1cccc(O)c1, the inhibition was active: 33.1%. COc1cc(C(=O)OCc2ccc(C)cc2)cc(NC(=O)c2cccs2)c1OC was tested, and the inhibition was active: 37.6%. Cc1cc(S(=O)(=O)Nc2cccc(C(=O)O)c2)c(C)c(S(=O)(=O)c2ccccc2)c1 was tested, and the inhibition was -7.71%. For COC(=O)c1cc(NC(=O)CCc2c(C)nc3c4c(C)cc(C)nc4nn3c2C)cc(C(=O)OC)c1, the inhibition was -9.12%. In the case of CCOC(=O)c1sc2ccccc2c1S(=O)(=O)Nc1ccc(N(C)C)cc1, the inhibition is reported as 1.26%. CCOC(=O)c1sc(N2C(=O)c3oc4cc(C)c(C)cc4c(=O)c3C2c2cccc(O)c2)nc1C (stereo unspecified) gave an inhibition of 0.863%. In the case of O=C(N/N=C/c1ccc(O)cc1)c1csc2ccccc12, the inhibition is reported as active: 32%.

— PubChem BioAssay AID485344 (National Center for Advancing Translational Sciences (NCATS), 2010)
Also: 0% is about no effect.
